This is one part of the list.

In the antibiotic and cytotoxicity screens of Wong et al. (2023) one finds cytotoxicity call and growth inhibition call data, which are given here for 10 compounds.

The test system of test [1] is HSkMC (human skeletal muscle cells). Nature of the test: cytotoxicity call (relative viability < 0.9). Particulars: 10 µM.
The test system of test [2] is HepG2. Nature of the test: cytotoxicity call (relative viability < 0.9). Particulars: 10 µM.
Test [3] has as its system S. aureus RN4220. The test can be described thus: growth inhibition call (relative growth <= 0.2). Particulars: 50 µM.

For `COc1ccc(S(=O)(=O)N(C)C[C@H]2OCCCC[C@@H](C)Oc3ccc(NC(=O)CCC(F)(F)F)cc3C(=O)N([C@@H](C)CO)C[C@H]2C)cc1`, the cytotoxicity call in test [1] and in test [2] was “inactive” throughout. In addition, the growth inhibition call in test [3] was “inactive”.

On to `C[C@@H]1CCCCO[C@H](CN(C)Cc2ccc3c(c2)OCO3)[C@@H](C)CN([C@H](C)CO)C(=O)c2cc(NS(=O)(=O)c3ccc(F)cc3)ccc2O1`, for which the cytotoxicity call in test [1] and in test [2] was “inactive” each time. Further, the growth inhibition call in test [3] was “inactive”.

As for `C[C@@H]1CN([C@H](C)CO)C(=O)c2cccc(NC(=O)C3CCOCC3)c2O[C@@H]1CN(C)Cc1ccc(Oc2ccccc2)cc1`, the cytotoxicity call in test [1] and in test [2] was “inactive” throughout. Further, the growth inhibition call in test [3] was “inactive”.

With `CC(C)n1c(=S)[nH]c2ccccc21`, the cytotoxicity call in test [1] was “inactive”. Besides, in test [2], the cytotoxicity call was “active”. In addition, the growth inhibition call in test [3] was “inactive”.

Take `CCCCOCCOCCOCc1cc2c(cc1CCC)OCO2`: the cytotoxicity call in test [1] and in test [2] was “inactive” each time. Besides, the growth inhibition call in test [3] is “inactive”.

For the compound `CN(C)CCCNC(=O)C[C@@H]1CC[C@H]2[C@H](COc3ccc(NS(C)(=O)=O)cc3C(=O)N2C)O1`, the cytotoxicity call in test [1] and in test [2] was “inactive” in each case. For the same compound, in test [3], the growth inhibition call is “inactive”.

In the case of `COc1cccc(C#Cc2cnc3c(c2)C(=O)N([C@@H](C)CO)C[C@@H](C)[C@@H](CN(C)C(=O)C2CCOCC2)O3)c1`, the cytotoxicity call in test [1] and in test [2] was “inactive” each time. Further, the growth inhibition call in test [3] is “inactive”.

Regarding `C=C(C)C1CC=C(C)CC1` (stereo not given), the cytotoxicity call in test [1] and in test [2] was “inactive” each time. Besides, the growth inhibition call in test [3] is “inactive”.

For the compound `COc1ccc(S(=O)(=O)N(C)C[C@H]2Oc3ccc(NS(=O)(=O)c4ccc(C)cc4)cc3C(=O)N([C@@H](C)CO)C[C@H]2C)cc1`, the cytotoxicity call in test [1] and in test [2] was “inactive” each time. Moreover, the growth inhibition call in test [3] was “inactive”.

As to `C=CCC[C@H](Cc1ccc(F)cc1)C(=O)OC[C@@H](NC(=O)[C@H](CC=C)CC(=O)N(CCO)Cc1ccccc1)c1ccccc1`, the cytotoxicity call in test [1] and in test [2] was “inactive” in each case. For the same compound, in test [3], the growth inhibition call was “inactive”.
